Measured values from PubChem BioAssay AID2451 (National Center for Advancing Translational Sciences (NCATS), 2010).
Among all 290,000 compounds or so, about 2,100 (0.72%) were called active. Inconclusive results, whose numbers are uncertain, are shown with a selection of clear calls. The call rests on the fitted dose curve; in most records, active means well fitted inhibition curve with a large enough effect; inconclusive means small, poorly fitted or top-dose-only effect, or effect the other way; inactive means flat fitted curve, though single readings scatter. A potency beside an inconclusive call is a rough fit, not a confirmed value.

Biological target: Fructose-bisphosphate aldolase (Giardia intestinalis (strain ATCC 50803 / WB clone C6)) (UniProt A8B2U2)
Sequence of UniProt A8B2U2 (A8B2U2 whole entry, looked up): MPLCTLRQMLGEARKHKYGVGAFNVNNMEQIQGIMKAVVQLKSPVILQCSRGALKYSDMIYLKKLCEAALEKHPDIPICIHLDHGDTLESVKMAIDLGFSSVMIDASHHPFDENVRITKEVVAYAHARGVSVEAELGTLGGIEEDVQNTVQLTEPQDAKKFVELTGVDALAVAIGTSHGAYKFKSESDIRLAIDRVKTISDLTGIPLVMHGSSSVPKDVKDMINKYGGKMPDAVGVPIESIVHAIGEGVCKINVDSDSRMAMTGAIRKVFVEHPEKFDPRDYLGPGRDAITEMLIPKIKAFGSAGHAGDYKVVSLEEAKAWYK
Experiment: qHTS Assay for Inhibitors of Fructose-1,6-bisphosphate Aldolase from Giardia Lamblia; further: nearly all actives have a fitted effect of over 55% in size
Conditions: purified Giardia FBPA; series mostly up to 59.6 µM
Outline: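 40 nM FBPA preincubated 10 min at RT with compound (up to 57.5 uM final), then substrate plus GAPDH/TPI/NAD/arsenate coupling and diaphorase/resazurin added. Fluorescence read after 20 min at RT, 525/598 nm.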
Potency means the concentration at half of the fitted maximal effect; tags describe the fitted curve by direction and shape.

Structure (SMILES) | Potency
Nc1ccc(N2CCCCC2)cc1N1CCCCC1 | inconclusive: 7.06 µM [inhibitor, partial curve]
Nc1nc(SCCO)[nH]c(=O)c1NC(=O)c1ccccc1F | inconclusive: 17.7 µM [inhibitor, single point]
O=C(O)c1cccc(NC2=C(Cl)C(=O)c3ccccc3C2=O)c1 | inconclusive: 2.51 µM [inhibitor, single point]
O=C(CSc1nc2ccccc2n1Cc1ccccc1)N/N=C/c1ccccc1C(=O)O | inactive
Fc1ccc(NC(=S)Nc2ccc3nccnc3c2)cc1 | inconclusive: 12.6 µM [inhibitor, partial curve]
COc1ccc(NC(=O)c2sc(=S)[nH]c2N)cc1 | inconclusive: 14.1 µM [inhibitor, partial curve]
O=c1cc(-c2cc3ccccc3oc2=O)c2ccc(O)cc2o1 | inactive
COc1cc2[nH]c(=S)n(NC(=O)c3ccccc3)c(=O)c2cc1OC | inconclusive: 17.7 µM [inhibitor, partial curve]
COc1ccc2c3c(cccc13)N(C)N=C2C | inconclusive: 2.51 µM [inhibitor, full curve]
O=C(NCCc1c[nH]c2ccccc12)OCCSS(=O)(=O)O | inconclusive: 19.9 µM [activator, partial curve]
O=C(OCC(=O)N1CCCCC1)c1cc2ccccc2cc1O | inactive
Nc1cccc2cnccc12 | inconclusive: 4.46 µM [inhibitor, partial curve]
Cn1c(=O)c(=O)n(C)c2cc(N3CCOCC3)c(NS(=O)(=O)c3ccc(Br)cc3)cc21 | inconclusive: 15.8 µM [inhibitor, partial curve]
CCOC(=S)SCc1cn2ccc(C)cc2n1 | inconclusive: 17.7 µM [inhibitor, partial curve]
O=C(NCc1n[nH]c(=S)n1-c1cccc(C(F)(F)F)c1)c1ccco1 | inconclusive: 35.5 µM [inhibitor, single point]
CCCCOc1ccc(C2=CSC3=NCCN23)cc1[N+](=O)[O-] | inactive
N#Cc1c(N)sc2c1CCN(CCc1ccccc1)C2 | inconclusive: 15.8 µM [inhibitor, single point]
COc1ccc(NS(=O)(=O)c2cc(NC(=O)c3cccnc3Cl)ccc2N2CCCC2)cc1 | inconclusive: 17.7 µM [inhibitor, single point]
Cc1cccc(NC(=O)NCc2ccc3c(c2)cc(C)n3C)c1 | inconclusive: 17.7 µM [inhibitor, single point]
CCOP(=O)(OCC)C(C#N)=C1SCN(c2ccc(Cl)cc2)CS1 | inconclusive: 39.8 µM [inhibitor, single point]
